According to PubChem BioAssay (Tox21):
Inconclusive means that the source gave no clear call. Such entries were picked first, then a sample of the others. For part of these data: A potency beside an inconclusive call is a rough fit, not a confirmed value. The source made the active and inactive calls. Unless noted, calls follow the shape of the dose curve; as a rule, active = well fitted curve in the direction sought with a large enough effect in the repeat runs; inconclusive = weak or mixed curves; inactive = no such curve, though single readings can be large; an effect the other way counts as inactive or inconclusive.

Key:
[1] = qHTS assay for small molecule agonists of the p53 signaling pathway (AID 651631; calls by dose curve; also: nearly all actives have a fitted effect of over 15% in size; also: potency is read from the fitted curve at half-maximal effect; as to activation: % is scaled to controls: 0 for no effect and ±100 for the full control effect); conditions: HCT-116 p53RE-bla reporter, beta-lactamase FRET ratio, 16 h; activation: at 73.3 µM (top of the series) unless noted
Outline: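 Fluorescence intensity from cleaved LiveBLAzer B/G substrate (2 h, room temperature) served as the signal. Beforehand, HCT-116 reporter cells bearing p53 response elements were treated 16 h at 37 °C with DMSO-dissolved compounds.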

[2] = qHTS assay for identifying genotoxic compounds that show differential cytotoxicity against isogenic chicken DT40 cell lines with known DNA damage response pathways - wild type cell line (AID 743012); conditions: DT40 wild type chicken cells viability, CellTiter-Glo, 40 h; activity change, negative = cytotoxicity: at 68.4 µM (top of the series) unless noted; also: potency is read from the fitted curve at half-maximal effect; nearly all actives have a fitted effect of over 60% in size
Outline: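 Wild-type DT40 cells (300/well) exposed to compounds for 40 hours at 37 C/5% CO2. Viability read by CellTiter-Glo luminescence after 30 min at room temperature.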

[3] = qHTS assay for identifying genotoxic compounds that show differential cytotoxicity against isogenic chicken DT40 cell lines with known DNA damage response pathways - Rev3 mutant cell line (AID 743014); conditions: chicken DT40 Rev3-/- viability, CellTiter-Glo, 40 h; activity, negative = cytotoxicity: at 68.4 µM (top of the series) unless noted; also: potency is read from the fitted curve at half-maximal effect; nearly all actives have a fitted effect of over 55% in size
[4] = qHTS assay to identify small molecule antagonists of the thyroid receptor (TR) signaling pathway (AID 743065); also: potency is read from the fitted curve at half-maximal effect; nearly all actives have a fitted effect of over 55% in size
Outline: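 GH3.TRE-Luc rat pituitary cells carrying two TR response elements driving luciferase were plated for 4 h, given compound plus 1 nM T3 (final), and incubated 23.5 h at 37 C. ONE-Glo luminescence measured reporter inhibition; CellTiter-Fluor fluorescence tracked cytotoxicity.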

[5] = biological target: Estrogen receptor (Homo sapiens) (UniProt P03372); experiment: qHTS assay to identify small molecule antagonists of the estrogen receptor alpha (ER-alpha) signaling pathway (AID 743069; active = well fitted curve in the direction sought with a large enough effect in the signal ratio in the repeat runs, not every such curve was filed as active; inconclusive = weak or mixed curves, or effect the other way; inactive = no such curve, though single readings can be large or run the other way; the % refers to the signal ratio; also: potency is read from the fitted curve at half-maximal effect; as to activity, negative = inhibition: % is scaled to controls: 0 for no effect and ±100 for the full control effect); conditions: HEK293 ER-alpha-UAS-bla, beta-lactamase ratio, antagonist mode; activity, negative = inhibition: at 69.4 µM (top of the series) unless noted
Outline: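 HEK293 cells stably carrying an ER-alpha-UAS-bla beta-lactamase reporter were pre-cultured overnight in 2% charcoal-stripped FBS medium. Test compounds in DMSO were added together with 17beta-estradiol for 18 hr at 37C. Read-out was fluorescence after 2 hr with LiveBLAzer B/G FRET substrate at room temperature.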

[6] = qHTS assay to identify small molecule antagonists of the estrogen receptor alpha (ER-alpha) signaling pathway using the BG1 cell line (AID 743080; calls by dose curve;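 also: BG1 cells stimulated with 17beta-estradiol alongside compound; nearly all actives have a fitted effect of over 25% in size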; also: potency is read from the fitted curve at half-maximal effect; as to activity change, negative = inhibition: % is scaled to controls: 0 for no effect and ±100 for the full control effect); conditions: BG1Luc4E2 ERE-luciferase antagonist mode, luminescence; activity change, negative = inhibition: at 70.3 µM (top of the series) unless noted
Outline: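 After 5 days in phenol-red-free 10% charcoal-stripped FBS medium, BG1-Luc-4E2 cells were seeded, left 24 h at 37 C, co-treated with compounds and 17beta-estradiol for 21.5 h, then assayed for viability and luciferase.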

[7] = qHTS assay to identify small molecule phospholipidosis (PLD) inducers (AID 1259344; active = well fitted curve in the direction sought with a large enough effect; inconclusive = small, poorly fitted or top-dose-only effect, or another doubt; inactive = no such curve, though single readings can be large; an effect the other way counts as inactive or inconclusive; also: potency is read from the fitted curve at half-maximal effect); conditions: HepG2 phospholipidosis, LipidTOX Red imaging, 24 h; PLD induction: at 38.3 µM (top of the series) unless noted
Outline: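 HepG2 cells on collagen I, attached 4 h at 37 C, were co-treated with compound and LipidTOX Red dye for 24 h at 37 C, then fixed with paraformaldehyde plus Hoechst 33342 and imaged by high-content microscopy for phospholipid accumulation.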

[8] = qHTS assay for small molecule disruptors of the mitochondrial membrane potential (AID 720635); conditions: HepG2 mitochondrial membrane potential, Mito-MPS dye ratio; ratio activity, negative = MMP loss: at 83.2 µM (top of the series) unless noted; also: potency is read from the fitted curve at half-maximal effect
Outline: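 HepG2 cells (2,000/well) attached overnight at 37C, then took compound for 1 hr at 37C, 5% CO2. Mito-MPS dye was added for 30 min; fluorescence was read at 490/535 nm (monomers) and 540/590 nm (aggregates).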

[9] = biological target: Glucocorticoid receptor (Homo sapiens) (UniProt P04150); experiment: qHTS assay to identify small molecule antagonists of the glucocorticoid receptor (GR) signaling pathway (AID 720692; active = well fitted inhibition curve with a large enough effect in the signal ratio in the repeat runs, not every such curve was filed as active; inconclusive = weak or mixed curves, or effect the other way; inactive = no such curve, though single readings can be large or run the other way; the % refers to the signal ratio; also: potency is read from the fitted curve at half-maximal effect); conditions: GR-bla HeLa, beta-lactamase FRET ratio, dexamethasone-stimulated, 18 h; activity change, negative = inhibition: at 58.5 µM (top of the series) unless noted
Outline: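 GR-bla HeLa cells carrying a GRE-driven beta-lactamase reporter received compound after 4 h plating, then dexamethasone (5 nM final). After 18 h at 37C, the FRET substrate was loaded for 2 h at room temperature and fluorescence read.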

[10] = qHTS assay to identify small molecule antagonists of the androgen receptor (AR) signaling pathway using the MDA cell line - cell viability counter screen (AID 743041; also: nearly all actives have a fitted effect of over 45% in size; also: potency is read from the fitted curve at half-maximal effect); conditions: MDA-kb2 viability, CellTiter-Fluor, 16 h, cells co-treated with R1881 androgen agonist; viability change, negative = cytotoxic: at 70.3 µM (top of the series)
Outline: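 MDA-kb2 AR-luc human breast carcinoma cells (MMTV-luciferase, AR/GR responsive) were treated with compounds plus R1881 agonist for 16 h at 37 °C. Viability was read as CellTiter-Fluor fluorescence in the same wells as the reporter assay.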

[11] = test system: thyroid hormone receptor (rat, GH3 cells); experiment: qHTS assay to identify small molecule agonists of the thyroid receptor (TR) signaling pathway (AID 743066; calls by dose curve; also: % is scaled to controls: 0 for no effect and ±100 for the full control effect); conditions: GH3.TRE-Luc cells, TR agonist luciferase, 24 h; activation: at 83.9 µM (top of the series) unless noted
[12] = qHTS assay to identify small molecule antagonists of the estrogen receptor alpha (ER-alpha) signaling pathway - cell viability counter screen (AID 743074; calls by dose curve; also: potency is read from the fitted curve at half-maximal effect; nearly all actives have a fitted effect of over 45% in size)
[13] = biological target: Estrogen receptor (Homo sapiens) (UniProt P03372); experiment: qHTS assay to identify small molecule agonists of the estrogen receptor alpha (ER-alpha) signaling pathway using the BG1 cell line (AID 743079); conditions: BG1Luc4E2 cells, ERE-luciferase agonist, 22 h; activation: at 70.3 µM (top of the series) unless noted; also: potency is read from the fitted curve at half-maximal effect; nearly all actives have a fitted effect of over 20% in size
[14] = biological target: Peroxisome proliferator-activated receptor gamma (Homo sapiens) (UniProt P37231); experiment: qHTS assay to identify small molecule agonists of the peroxisome proliferator-activated receptor gamma (PPARg) signaling pathway (AID 743094; active = well fitted activation curve with a large enough effect in the signal ratio in the repeat runs, not every such curve was filed as active; inconclusive = weak or mixed curves, or effect the other way; inactive = no such curve, though single readings can be large or run the other way; the % refers to the signal ratio; also: potency is read from the fitted curve at half-maximal effect); conditions: HEK293H PPARg-UAS-bla, beta-lactamase FRET ratio, 17 h; activation: at 57 µM (top of the series) unless noted
Outline: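 GeneBLAzer PPARg UAS-bla HEK293H cells were plated, rested 5 h, then exposed to compounds for 17 h at 37C. Beta-lactamase activity was read by LiveBLAzer B/G FRET substrate fluorescence after 1 h at room temperature.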

[15] = qHTS assay to identify aromatase inhibitors - cell viability counter screen (AID 743084); conditions: MCF-7 aro ERE viability, CellTiter-Fluor, 24 h; activity change, negative = cytotoxicity: at 70.3 µM (top of the series) unless noted;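 also: cells stimulated with testosterone during compound exposure; % is scaled to controls: 0 for no effect and ±100 for the full control effect; nearly all actives have a fitted effect of over 55% in size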
Tags tell the direction and shape of the fitted curve or compound fluorescence and quenching.

UniProt P03372, sequence (P03372 whole entry, looked up): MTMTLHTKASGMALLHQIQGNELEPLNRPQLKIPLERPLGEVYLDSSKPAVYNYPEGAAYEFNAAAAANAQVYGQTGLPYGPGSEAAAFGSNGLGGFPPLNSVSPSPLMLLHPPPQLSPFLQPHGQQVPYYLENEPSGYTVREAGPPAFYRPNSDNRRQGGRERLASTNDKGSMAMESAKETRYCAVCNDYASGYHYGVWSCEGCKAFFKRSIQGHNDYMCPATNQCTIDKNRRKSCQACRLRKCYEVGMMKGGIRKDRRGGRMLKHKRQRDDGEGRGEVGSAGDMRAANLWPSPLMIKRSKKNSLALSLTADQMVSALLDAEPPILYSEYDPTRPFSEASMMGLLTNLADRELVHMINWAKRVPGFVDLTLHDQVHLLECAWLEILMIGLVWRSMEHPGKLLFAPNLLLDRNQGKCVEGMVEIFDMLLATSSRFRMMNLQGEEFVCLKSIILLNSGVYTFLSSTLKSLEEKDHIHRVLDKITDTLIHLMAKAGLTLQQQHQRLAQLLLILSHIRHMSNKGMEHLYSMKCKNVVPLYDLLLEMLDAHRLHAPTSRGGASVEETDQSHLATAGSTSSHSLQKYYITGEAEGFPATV
UniProt P04150, sequence (P04150 whole entry, looked up): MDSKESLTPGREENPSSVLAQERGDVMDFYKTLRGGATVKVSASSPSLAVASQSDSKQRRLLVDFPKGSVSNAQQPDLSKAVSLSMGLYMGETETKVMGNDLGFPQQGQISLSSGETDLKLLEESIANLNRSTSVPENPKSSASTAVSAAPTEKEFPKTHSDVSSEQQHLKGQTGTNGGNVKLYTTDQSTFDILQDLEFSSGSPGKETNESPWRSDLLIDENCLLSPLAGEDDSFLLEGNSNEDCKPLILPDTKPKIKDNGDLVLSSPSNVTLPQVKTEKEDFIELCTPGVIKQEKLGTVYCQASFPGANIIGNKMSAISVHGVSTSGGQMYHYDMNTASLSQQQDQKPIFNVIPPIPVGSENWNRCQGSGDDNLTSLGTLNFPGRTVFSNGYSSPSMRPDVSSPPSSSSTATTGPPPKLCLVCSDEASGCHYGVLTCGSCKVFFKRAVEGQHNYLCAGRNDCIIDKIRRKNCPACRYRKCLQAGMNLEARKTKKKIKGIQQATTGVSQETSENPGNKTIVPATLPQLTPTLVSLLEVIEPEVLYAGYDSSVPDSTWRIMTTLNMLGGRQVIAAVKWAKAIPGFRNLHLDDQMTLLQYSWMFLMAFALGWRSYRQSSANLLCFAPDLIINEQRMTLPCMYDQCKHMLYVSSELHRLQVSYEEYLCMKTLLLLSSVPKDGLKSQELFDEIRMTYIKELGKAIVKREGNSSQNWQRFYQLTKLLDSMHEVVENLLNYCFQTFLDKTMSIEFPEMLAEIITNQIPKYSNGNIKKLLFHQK
UniProt P37231, sequence (P37231 whole entry, looked up): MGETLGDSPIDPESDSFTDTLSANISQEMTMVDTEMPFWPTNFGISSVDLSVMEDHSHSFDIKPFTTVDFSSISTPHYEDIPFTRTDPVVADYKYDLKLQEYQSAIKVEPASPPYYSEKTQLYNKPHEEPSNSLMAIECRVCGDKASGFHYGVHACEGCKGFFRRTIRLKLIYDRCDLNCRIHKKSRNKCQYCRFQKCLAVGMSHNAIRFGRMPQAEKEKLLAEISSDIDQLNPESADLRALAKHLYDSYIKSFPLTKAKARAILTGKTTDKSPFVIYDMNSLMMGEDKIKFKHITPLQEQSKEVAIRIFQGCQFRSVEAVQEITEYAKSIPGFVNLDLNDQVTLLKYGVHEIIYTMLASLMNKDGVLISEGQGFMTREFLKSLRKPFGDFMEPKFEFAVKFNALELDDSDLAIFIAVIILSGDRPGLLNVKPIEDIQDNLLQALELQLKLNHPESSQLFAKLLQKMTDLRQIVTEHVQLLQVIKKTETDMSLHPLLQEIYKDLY

SMILES	activation [1]	Potency [2]	Potency [3]	Potency [4]	Potency [5]	activity change, negative = inhibition [6]	Potency [7]	Potency [1]	Potency [8]	Potency [9]	Potency [10]	activation [11]	Potency [12]	Potency [13]	Potency [6]	Potency [14]	Potency [15]
c1ccc2cc(C3=NCCN3)ccc2c1	inconclusive: 10.2%	inconclusive: 7.5 µM [cytotoxic, full curve]	inconclusive: 4.22 µM [cytotoxic, full curve]	inconclusive: 23.7 µM [inhibitor, partial curve]	inactive	inconclusive: 12.2%	inactive	–	–	–	–	–	–	–	–	–	–
C=C1CC[C@H](O)CC1=C/C=C1\CCC[C@]2(C)[C@@H]([C@H](C)CCCC(C)(C)O)CC[C@@H]12	–	–	–	–	inconclusive: 9.52 µM [full curve]	–	inactive	inconclusive: 10.6 µM [cytotoxic]	active: 5.31 µM	inconclusive: 19 µM [cytotoxic, partial curve]	inactive	inconclusive: -7.41% [phenotype inactive]	active: 23.9 µM	inconclusive: 6.68 µM [inhibitor, full curve]	inconclusive: 29.8 µM [falling, partial curve]	inconclusive: 26.8 µM [single point]	–
C[C@]12C=CC(=O)N[C@@H]1CC[C@@H]1[C@@H]2CC[C@]2(C)[C@@H](C(=O)Nc3cc(C(F)(F)F)ccc3C(F)(F)F)CC[C@@H]12	–	–	inconclusive: 9.44 µM [cytotoxic, partial curve, poor fit]	inconclusive: 3.35 µM [inhibitor]	inconclusive: 2.13 µM [fluorescent, full curve]	–	inconclusive: 4.47 µM [activator, partial curve]	inconclusive: 18.8 µM [rising, partial curve, poor fit]	active: 0.944 µM	inconclusive: 8.49 µM [activator, partial curve]	inconclusive: 0.0044 µM [rising, full curve, poor fit]	–	inconclusive: 26.8 µM [cytotoxic, single point]	inconclusive: 8.41 µM [activator, full curve]	inconclusive: 5.31 µM [rising, full curve]	–	inactive
